Data taken from PMC6919601, “Identification of Plasmodium dipeptidyl aminopeptidase allosteric inhibitors by high throughput screening” (PLoS ONE, 2019).
The campaign covered roughly 110,000 compounds. About 230 (0.21%) showed an effect of 50% or more. The list shows a part of the results.

molecular target: DPAP1 (Plasmodium falciparum, UniProt Q8IIJ9); test: primary screen, percent inhibition; read by cleavage of a fluorogenic dipeptide substrate; higher = more effect of the substance; design: species or system P. falciparum D10 trophozoite lysates; single well
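Note: 30 min substrate incubation versus DMSO and 10 µM JCP410 controls.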

DPAP1, sequence (Q8IIJ9 whole entry, looked up): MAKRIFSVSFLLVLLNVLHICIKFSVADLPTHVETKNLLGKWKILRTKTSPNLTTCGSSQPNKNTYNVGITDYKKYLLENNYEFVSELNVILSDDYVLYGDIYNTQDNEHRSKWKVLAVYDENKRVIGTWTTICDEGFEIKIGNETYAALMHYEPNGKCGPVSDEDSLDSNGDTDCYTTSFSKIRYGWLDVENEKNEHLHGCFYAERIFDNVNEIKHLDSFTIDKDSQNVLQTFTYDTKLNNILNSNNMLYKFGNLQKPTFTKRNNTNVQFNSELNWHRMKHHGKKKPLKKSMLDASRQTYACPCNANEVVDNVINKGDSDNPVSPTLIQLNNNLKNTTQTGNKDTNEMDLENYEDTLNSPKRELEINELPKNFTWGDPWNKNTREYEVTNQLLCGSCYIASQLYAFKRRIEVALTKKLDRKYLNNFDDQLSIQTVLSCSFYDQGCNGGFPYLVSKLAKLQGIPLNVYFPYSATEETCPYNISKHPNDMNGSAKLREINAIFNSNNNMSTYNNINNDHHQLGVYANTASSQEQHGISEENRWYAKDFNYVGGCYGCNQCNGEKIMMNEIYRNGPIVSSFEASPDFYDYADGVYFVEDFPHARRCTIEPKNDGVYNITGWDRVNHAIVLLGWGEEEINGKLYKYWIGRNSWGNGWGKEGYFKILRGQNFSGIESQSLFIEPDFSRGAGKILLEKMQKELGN

Structure (SMILES) | % Inhibition @ 10 uM [%]
CC(Sc1nc(-c2ccccc2)cc(C(F)(F)F)n1)C(=O)NCc1cccnc1 (stereo not shown) | -3.92
COc1ccc(Cl)cc1NC(=O)CN(c1ccc(OC)c(OC)c1)S(C)(=O)=O | -7.09
N#Cc1ccccc1Cn1c(=O)n(Cc2ccc(C(=O)NCc3ccco3)cc2)c(=O)c2sccc21 | -9.28
COc1cccc(C(=O)N2CCN(Cc3ccccc3F)CC2)c1 | 0.0504
CCOc1ccc(C2c3c(oc4ccc(F)cc4c3=O)C(=O)N2Cc2ccc3c(c2)OCO3)cc1 (stereo not shown) | -5
CC1(C)CC2=Nc3nc(-c4ccccc4)nn3C(c3ccccc3)C2=C(O)C1 (stereo not shown) | 2.36
CCN(CC)CCN(CC)Cc1ccccc1 | 0.0792
O=C(CN1C(=O)c2cccc3cccc(c23)C1=O)N1CCCC1 | -1.2
COc1ccc(NC(=O)CNS(=O)(=O)c2cc(Cl)ccc2Cl)cc1OC | 7.67
O=C(NCc1ccc(F)cc1)C1CCN(S(=O)(=O)c2ccc3[nH]c(-c4ccccc4)nc3c2)CC1 | 3.08
N#CCNC(=O)[C@H](CS(=O)(=O)Cc1ccccc1)NC(=O)N1CCOCC1 | -5.04
Cc1cc(C)cc(NC(=O)c2cnccn2)c1 | 2.02
Cc1cc(/N=C2/C=C(O)CC(C)(C)C2)[nH]n1 | 1.91
Cc1ccccc1N(CC(=O)NC(C)(C)C)S(C)(=O)=O | -1.32
CCOC(=O)Nc1ccc2c(c1)Nc1ccccc1[S+]2O (stereo not shown) | 3.06
Cc1ccc(N2C(=O)C(Cl)=C(Nc3ccc(F)cc3)C2=O)cc1 | -3.63
CCN(CC)CCN(C)Cc1c(F)cccc1F | 4.68
O=C(CCC(=O)N1Cc2ccccc2Oc2ncccc21)NCCc1ccc(Cl)cc1 | 7.7
CCSc1nc2c(cc1C#N)CCC2 | -4.94
O=[N+]([O-])c1ccc2c(c1)C1C=CCC1C(c1ccc(Br)cc1)N2 (stereo not shown) | -4.11
O=C(Nc1cc(Cl)c(Cl)cc1Cl)C1CCN(S(=O)(=O)c2ccccc2)CC1 | -3.41
CCCCCCn1c(=O)c(C(=O)Nc2ccc(Cl)cn2)c(O)c2ccccc21 | 3.05

Structure (SMILES) | % Inhibition @ 10 uM [%]
CCCOc1ccc(C2CC(=O)NC3=C2C(=O)CC(c2ccc(OC)c(OC)c2)C3)cc1 (stereo not shown) | 3.11
COc1nc(-c2ccccc2)ccc1-c1noc(-c2cccs2)n1 | -5
Cc1ccc(S(=O)(=O)N2CCN(C(=O)c3ccccc3F)CC2)cc1 | -5.2
COc1ccc(CCNC(=O)CSc2nnc(-c3ccncc3)o2)cc1OC | 2.95
Cc1nn(C(=O)C23CC4CC(CC(C4)C2)C3)c(C)c1Sc1ccccc1 | 2.76
Cc1ccnc(NC(=O)COc2ccccc2C)c1 | 0.843
Cn1nc(/C=C\c2ccccc2)nc2c(=O)n(C)c(=O)nc1-2 | -4.64
Cc1ccc(CCNC(=O)c2cc(-c3ccc(Br)cc3)[nH]n2)cc1 | 2.45
CCN(CCN(C)C)Cc1ccccc1Cl | -2.34
Cc1cccc(OCCCn2ccnc2)c1 | -4.08
CC(C)Cc1nnc(NC(=O)c2nc(S(C)(=O)=O)ncc2Cl)s1 | -6.5
COC(=O)c1ccc(CN2C[C@@H]3C[C@H](C2)c2cccc(=O)n2C3)cc1 | -1.85
Cc1ccc2nc3c(O)n(CC(=O)NCCCOC(C)C)ncc-3c2c1 | 1.92
Cc1cc(=O)oc2c1c(C)nn2-c1cccc(Br)c1 | -1.25
O=C(Nc1ccc2ccccc2c1)c1cccnc1Cl | 6.77
CC(=O)N(Cc1ccccc1)C1CCCc2c1[nH]c1ccc(C)cc21 (stereo not shown) | 9
CC1CC(C)(C)NC(=S)N1CC(=O)N1CCN(Cc2ccc3c(c2)OCO3)CC1 (stereo not shown) | 2.73
CCc1c(C)sc(NC(=O)COc2ccc(Cl)cc2Cl)c1C(N)=O | -1.22
COC(=O)c1cc2c(=O)n3cc(C)ccc3nc2n(Cc2cccnc2)c1=N | -3.27
Cc1cc(C)c2c(=O)n(CC(=O)NCc3ccccc3Cl)sc2n1 | 83.7
CCCC(=O)Nc1ccc2nc(SCC(=O)N3CCN(c4ccccc4)CC3)sc2c1 | -0.99
CCNc1nc(SCCOc2ccc(Cl)cc2Cl)nc(N(C)C)n1 | -3.96

Structure (SMILES) | % Inhibition @ 10 uM [%]
N#CC1=C(N)OC2=C(C(=O)CCC2)C1C1CCCCC1 (stereo not shown) | -6.7
O=C(O)Cn1nnc2sc3c(c2c1=O)CCCC3 | -1.18
CC(=O)c1c(NCc2ccccc2)nc(=O)n(-c2ccccc2)c1C | 0.937
N#CC1=C(SCc2ccccc2)NC(=O)C(C#N)C12CCCCC2 (stereo not shown) | -0.597
COc1ccc(C2=NC3(CCN(C(=O)NC4CCCCC4)CC3)N=C2SC)cc1 | -4.13
CC(Cc1ccccc1F)N1CCN(c2ccc(F)cc2)CC1 (stereo not shown) | -5.31
Cc1cccc(N2C(=O)NC(=O)/C(=C/Nc3ccc4[nH]c(C)nc4c3)C2=O)c1 | 1.01
CCc1ccc(C(=O)/C=C/c2ccc(F)cc2)cc1 | -6.2
Cc1c(C(=O)NCC(C)C)sc2nc(-c3ccc(F)cc3)cn12 | -5.58
COc1cccc(OC)c1C(=O)N(Cc1nc(-c2cccc(C)c2)no1)C(C)C | -6.23
CN(CC(=O)Nc1sc2c(c1C#N)CCCC2)S(=O)(=O)c1ccccc1 | 4.01
Cn1c(=O)n(C)c2cc(/C=C3/SC(=O)N(CC(=O)Nc4ccc(Cl)cc4)C3=O)ccc21 | 15.2
Cc1cccc(C(=O)Nc2ccc(C)c(C)c2)c1 | 0.827
CC(=O)c1cccc(Nc2cc(C)nc3ccc(C)cc23)c1 | -14.4
CCC(CC)C(=O)Nc1ccccc1C(N)=O | -6.4
O=C(NC1CCCc2ccccc21)c1ccc2nc(N3CCOCC3)sc2c1 (stereo not shown) | -2.37
CCn1c(C(C)NC(=O)Cc2ccccc2)nc2ccccc21 (stereo not shown) | 6.01
CCNC(=O)OC(CC)C12CC3CC(CC(C3)C1)C2 (stereo not shown) | -0.712
CCC1C(=O)NC(=O)N(c2ccccc2)C1=O (stereo not shown) | -7.11
CC(C)Oc1ccc(C(=O)C2=C(O)C(=O)N(Cc3cccnc3)C2c2ccc(O)cc2)cc1 (stereo not shown) | 3.81
